Consider 3 molecules from patent US20250034274A1 (Daiichi Sankyo, published 2025).

Assay [1] deals with T1, biotinylated human CD98 antigen (human, UniProt P08195 105-529, biotinylated with EZ-Link NHS-PEG4-Biotin (for ELISA)).
T1 construct: extracellular domain
T1 sequence (looked up): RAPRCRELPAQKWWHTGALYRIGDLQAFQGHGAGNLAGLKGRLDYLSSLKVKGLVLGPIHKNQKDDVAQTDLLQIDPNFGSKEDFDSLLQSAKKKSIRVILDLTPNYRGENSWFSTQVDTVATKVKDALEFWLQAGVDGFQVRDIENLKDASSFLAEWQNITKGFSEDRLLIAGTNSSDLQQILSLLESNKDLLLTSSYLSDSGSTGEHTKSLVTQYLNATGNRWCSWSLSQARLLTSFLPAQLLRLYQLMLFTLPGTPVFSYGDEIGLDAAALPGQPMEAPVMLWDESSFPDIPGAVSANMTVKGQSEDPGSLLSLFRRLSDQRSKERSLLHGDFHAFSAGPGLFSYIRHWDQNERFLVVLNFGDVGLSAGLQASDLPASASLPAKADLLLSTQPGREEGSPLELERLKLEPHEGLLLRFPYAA
Nature of the assay: ELISA, immobilised biotinylated human CD98, anti-human IgG-HRP, chemiluminescence; without protease.

In assay [2] the target is T1, biotinylated human CD98 antigen. In words: ELISA, immobilised biotinylated human CD98, anti-human IgG-HRP, chemiluminescence; antibody pre-incubated with CAPN1. In general terms: In an ELISA, binding on a coated surface is turned into a signal by an enzyme label.
Assay [3] has the same target. In words: ELISA, immobilised biotinylated human CD98, anti-human IgG-HRP, chemiluminescence; antibody pre-incubated with MMP9.
The target is the same in assay [4]. Nature of the assay: ELISA, immobilised biotinylated human CD98, anti-human IgG-HRP, chemiluminescence; without protease. This is another data set of the same source.
Assay [5] shares this target. Nature of the assay: ELISA, immobilised biotinylated human CD98, anti-human IgG-HRP, chemiluminescence; antibody pre-incubated with MMP9. This is another data set of the same source.
Assay [6] shares this target. Nature of the assay: ELISA, immobilised biotinylated human CD98, anti-human IgG-HRP, chemiluminescence; antibody pre-incubated with CAPN1. The source holds these as a separate data set.
For assay [7] the target is unchanged. The description is as above. The source holds these as a separate data set.
For assay [8] the target is unchanged. In words: ELISA, immobilised biotinylated human CD98, anti-human IgG-HRP, chemiluminescence; antibody pre-incubated with uPA.
For assay [9] the target is unchanged. In words: ELISA, immobilised biotinylated human CD98, anti-human IgG-HRP, chemiluminescence; without protease. This is another data set of the same source.

B1: MhM1023-M1 (antibody)
heavy: QVQLVQSGAEVKKPGASVKVSCKASGAAFSNYLIEWVRQAPGQGLEWMGVINPGSGVTNYNEKFKGRVTITADTSTSTAYMELSSLRSEDTAVYYCARAEAWFAYWGQGTLVTVSSASTKGPSVFPLAPSSKSTSGGTAALGCLVKDYFPEPVTVSWNSGALTSGVHTFPAVLQSSGLYSLSSVVTVPSSSLGTQTYICNVNHKPSNTKVDKRV[human IgG1 Fc not shown]
light: GNFYHQYPWPLEILGSGGGGSPLGLAGGGPLFAAPGGSDIVMTQSPDSLAVSLGERATINCKSSQSLLYSSNQKNYLAWYQQKPGQPPKLLIYWASTRESGVPDRFSGSGSGTDFTLTISSLQAEDVAVYYCQRYYGYPWTFGQGTKVEIKRTVAAPSVFIFPPSDEQLKSGTASVVCLLNNFYPREAKVQWKVDNALQSGNSQESVTEQDSKDSTYSLSSTLTLSKADYEKHKVYACEVTHQGLSSPVTKSFNRGEC
notes: Anti-CD98 masked antibody; MMP9 substrate and CAPN substrate
Take B1: the EC50 (read off the curve) (usually the midpoint of the concentration-response curve) was roughly 100 nM in [1], roughly 3 nM in assay [2] and roughly 0.9 nM in assay [3].

B2: MhM1022-M1 (antibody)
heavy: QVQLVQSGAEVKKPGASVKVSCKASGAAFSNYLIEWVRQAPGQGLEWMGVINPGSGVTNYNEKFKGRVTITADTSTSTAYMELSSLRSEDTAVYYCARAEAWFAYWGQGTLVTVSSASTKGPSVFPLAPSSKSTSGGTAALGCLVKDYFPEPVTVSWNSGALTSGVHTFPAVLQSSGLYSLSSVVTVPSSSLGTQTYICNVNHKPSNTKVDKRV[human IgG1 Fc not shown]
light: GNFYHQYPWPLEILGSGGGGSPLGLAGGGSGGGGSGGSDIVMTQSPDSLAVSLGERATINCKSSQSLLYSSNQKNYLAWYQQKPGQPPKLLIYWASTRESGVPDRFSGSGSGTDFTLTISSLQAEDVAVYYCQRYYGYPWTFGQGTKVEIKRTVAAPSVFIFPPSDEQLKSGTASVVCLLNNFYPREAKVQWKVDNALQSGNSQESVTEQDSKDSTYSLSSTLTLSKADYEKHKVYACEVTHQGLSSPVTKSFNRGEC
notes: Anti-CD98 masked antibody; MMP9 substrate PLGLAG only
For the molecule B2, the results for the “EC50 (read off the curve)” value in [4], in assay [5] and in [6] were roughly 100 nM, roughly 0.6 nM and roughly 30 nM, respectively.

B3: MhM1021-M1 (antibody)
heavy: QVQLVQSGAEVKKPGASVKVSCKASGAAFSNYLIEWVRQAPGQGLEWMGVINPGSGVTNYNEKFKGRVTITADTSTSTAYMELSSLRSEDTAVYYCARAEAWFAYWGQGTLVTVSSASTKGPSVFPLAPSSKSTSGGTAALGCLVKDYFPEPVTVSWNSGALTSGVHTFPAVLQSSGLYSLSSVVTVPSSSLGTQTYICNVNHKPSNTKVDKRV[human IgG1 Fc not shown]
light: GNFYHQYPWPLEILGSGGGGSGRSANAGGPLFAAPGGSDIVMTQSPDSLAVSLGERATINCKSSQSLLYSSNQKNYLAWYQQKPGQPPKLLIYWASTRESGVPDRFSGSGSGTDFTLTISSLQAEDVAVYYCQRYYGYPWTFGQGTKVEIKRTVAAPSVFIFPPSDEQLKSGTASVVCLLNNFYPREAKVQWKVDNALQSGNSQESVTEQDSKDSTYSLSSTLTLSKADYEKHKVYACEVTHQGLSSPVTKSFNRGEC
notes: Anti-CD98 masked antibody; uPA substrate and CAPN substrate
Turning to B3, the “EC50 (read off the curve)” value in assay [7] was roughly 3 nM; in assay [8] it was roughly 1 nM; in [9], roughly 90 nM.
